Measured values taken from PubChem BioAssay AID1508642 (National Center for Advancing Translational Sciences (NCATS), 2021).
About 200 (0.47%) of roughly 43,000 compounds were called active. Inconclusive results (about 12%) are left out. Calls come from the whole dose curve; as a rule, active = well fitted cell-killing curve with a large enough effect; inconclusive = small, poorly fitted or top-dose-only effect, or effect the other way; inactive = flat fitted curve, though single readings scatter. The list shows a part of the results.

Test: Cell viability qHTS assay in S16 Pmp22-F2sN cells; note: nearly all actives have a fitted effect of over 65% in size
Settings: S16 Pmp22-F2sN Schwann cells viability, CellTiter-Glo, 24 h; series mostly up to 57.5 µM; activity change, negative = cytotoxicity: at the top concentration
How it was run: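 Viability was measured by CellTiter-Glo luminescence (15 min, room temperature). This followed 24 h at 37 °C of compound exposure (23 nL pin transfer) in S16 Pmp22-F2sN Schwann cells, 500-1,000 per well.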
% is set by controls: 0 for no effect and ±100 for the full control effect; potency is the fitted concentration of half-maximal effect.

Row | Compound | activity change, negative = cytotoxicity | Potency
1 | CC(C)c1ccc(NC(=O)C2CCCN2S(=O)(=O)c2ccc3nc(-c4ccccc4)[nH]c3c2)cc1 (centres undefined) | inactive: -1.85% | 
2 | O=S(=O)(c1ccc(-c2csc(=Nc3ccc(F)cc3)n2CCCCCCO)cc1)N1CCCC1 |  | active: 17.8 µM
3 | Cc1cccc(OCC(=O)Nc2ccc3c(c2)nc(CN2CCCCC2)n3C)c1 | inactive: -23% | 
4 | CCCc1nnc(NC(=O)Cc2coc3c(C)c(C)ccc23)s1 | inactive: -2.86% | 
5 | COc1ccc(C(=O)N(Cc2sccc2C)C2CCS(=O)(=O)C2)cc1 (centres undefined) | inactive: -4.5% | 
6 | COc1cc(NC(=O)Cn2ccc3ccccc3c2=O)cc(OC)c1OC | inactive: -0.686% | 
7 | CCOCCCn1c(SCC(=O)Nc2ccc(CC)cc2)nc2ccccc2c1=O | inactive: -7.53% | 
8 | Cc1ccc2c(c1)Cc1c(nc(-c3ccc(F)cc3)nc1SCC(=O)N1CCCCC1)O2 | inactive: 3.54% | 
9 | CCC(C)NC(=O)Cn1c(=O)n(-c2ccc(OC)c(OC)c2)c(=O)c2ccccc21 (centres undefined) | inactive: 3.51% | 
10 | CCOC(=O)C1CCN(C(=O)c2c(C)nn(-c3ccc(F)cc3)c2-n2cccc2)CC1 | inactive: 29% | 
11 | COc1ccc2cc(CCNS(=O)(=O)c3ccc(C)cc3)c(=O)[nH]c2c1 | inactive: 9.72% | 
12 | Cc1ccc(Nc2c(-c3cccnc3)nc3ccc(Cl)cn23)cc1 | inactive: -2.27% | 
13 | CCc1cccc(NC(c2ccccc2)c2nnc(-c3ccccc3F)o2)c1 (centres undefined) | inactive: -24.1% | 
14 | COc1ccc(C(=O)Nc2nnc(S(=O)(=O)N(C)c3ccc(C)cc3)s2)cc1 | inactive: 2.72% | 
15 | COc1ccc(C(=O)Nc2nnc(S(=O)(=O)N3CCN(c4ccc(F)cc4)CC3)s2)cc1 | inactive: 6.79% | 
16 | CCc1ccccc1Nc1ncnc2c1cnn2-c1ccc(C)cc1C | inactive: 24% | 
17 | Cc1ccc(NC(=O)CSc2nc3c(sc4ccccc43)c(=O)n2CCCC(=O)NC2CCCC2)cc1C | inactive: 12.3% | 
18 | COc1cccc(CNC(=O)c2cc3c(=O)n(Cc4cccnc4)ccc3nc2C)c1 | inactive: -18.3% | 
19 | CCOC(=O)c1c(C)[nH]c(C)c1S(=O)(=O)N1CCCC(C(=O)NCc2ccccc2Cl)C1 (centres undefined) | inactive: -20% | 
20 | COc1ccccc1CNC(=O)CN(c1ccccc1OC)S(C)(=O)=O | inactive: 0.564% | 
21 | CCOc1ccc(-c2nonc2NC(=O)c2ccco2)cc1OCC | inactive: -3.43% | 
22 | CCOC(=O)c1ccc(NC(=O)CC2C(=O)N(c3cccc(C)c3)C(=O)N2CCOC)cc1 (centres undefined) | inactive: -8.54% | 
23 | Cc1ccc(OCC(=O)Nc2nnc(SCc3cc(=O)n4cccc(C)c4n3)s2)cc1 | inactive: 2.69% | 
24 | CCOc1cc(CNC(=O)NC2COc3ccccc3C2)cc(OCC)c1OCC (centres undefined) | inactive: 1.04% | 
25 | CCCCN(CC)CCCNC(=O)c1cc2c(=O)oc3ccc(C)cc3c2s1 | inactive: 5.93% | 

Row | Compound | activity change, negative = cytotoxicity | Potency
26 | CC1=C(C(=O)N2CCN(c3ccc(Cl)cc3)CC2)C2(CCC(C)CC2)OC1=O (centres undefined) | inactive: -14.7% | 
27 | O=C(COc1ccc(Cl)cc1)NCC(c1cccs1)S(=O)(=O)c1ccc(F)cc1 (centres undefined) | inactive: -0.301% | 
28 | COc1ccc(-c2nc3sc(CCNC(=O)C(=O)Nc4ccc(C)c(C)c4)c(C)n3n2)cc1 | inactive: -0.66% | 
29 | CCOC(=O)c1cc(-c2ccccc2)n(CC(=O)NCc2ccccc2)c1C | inactive: -4.78% | 
30 | Cc1ccc(C)c(Cn2c(=O)n(CCCC(=O)NCCc3ccc(Cl)cc3)c(=O)c3ccccc32)c1 | inactive: 19.8% | 
31 | Cc1ccc(-c2cc3nccc(-c4cc([N+](=O)[O-])ccc4O)n3n2)cc1 | inactive: 7.06% | 
32 | CN(c1ccc(F)cc1)S(=O)(=O)N1CCCC(C(=O)NCCc2ccccc2)C1 (centres undefined) | inactive: 12.6% | 
33 | Cc1c(C(=O)OC2CCCCCC2)[nH]c2c1C(=O)CC(c1ccccc1)C2 (centres undefined) | inactive: -3.31% | 
34 | Cc1nc2ccc(S(=O)(=O)NC(CC(C)C)C(=O)NCc3ccc(Cl)cc3)cc2s1 (centres undefined) | inactive: -0.466% | 
35 | CCOc1ccc(S(=O)(=O)NCc2nc3cccnc3n2Cc2ccccc2OC)cc1 | inactive: 0.0615% | 
36 | CCOC(=O)C1CCN(C(=O)c2ccc3c(c2)sc2nc(-c4ccc(OC)cc4)cn23)CC1 | inactive: -2.53% | 
37 | CCCOc1ccc(-c2nc3ccc(Br)cc3c(=O)o2)cc1 | inactive: 1.51% | 
38 | CCCCNC(=O)CSc1nc2n[nH]c(C)c2c(=N)n1-c1cccc(C)c1 | inactive: -10.1% | 
39 | CCOC(=O)c1cc(S(=O)(=O)Nc2c(C)cc(C)cc2C)[nH]n1 | inactive: -1.76% | 
40 | Cc1ccc2nc(-c3ccc(NC(=O)COc4ccccc4C(C)(C)C)cc3)sc2c1 | inactive: 5.94% | 
41 | C=CCc1cccc2cc(-c3nc4ccc(C(=O)O)cc4[nH]3)c(=O)oc12 | inactive: 6.83% | 
42 | COc1cc(NC(=O)CN2CCCN(S(=O)(=O)c3ccc(F)cc3)CC2)cc(OC)c1 | inactive: 9.37% | 
43 | O=C(Nc1ccccc1Br)c1cc(S(=O)(=O)NC2CCCCC2)ccc1F | inactive: -4.06% | 
44 | COc1cc(-c2noc(-c3ccc(NC4CCCC4)c([N+](=O)[O-])c3)n2)cc(OC)c1OC | inactive: 1.67% | 
45 | CCOC(=O)CCCCN(Cc1ccccc1F)S(=O)(=O)c1ccc(F)c(C(=O)Nc2cc(Cl)cc(Cl)c2)c1 | inactive: -22.5% | 
46 | O=C(NCc1ccc(F)cc1)c1nnc(Cc2cccc(F)c2)o1 | inactive: -3.13% | 
47 | COc1ccc(-c2noc(-c3cc(-c4ccc(F)cc4)n[nH]3)n2)cc1 | inactive: 0.167% | 
48 | CC(=O)NC(C)c1nc2ccccc2n1Cc1ccccc1Cl (centres undefined) | inactive: 9.67% | 
49 | CCOC(=O)N1CCN(c2ncc3c(n2)CC(c2ccc(Cl)cc2)CC3=O)CC1 (centres undefined) | inactive: 8.22% | 
